Test results as given in the supplement of paper PMC7826260.
Some of the results follow. Cleavage of a single-stranded DNA pool by Rep nickase domains was read by sequencing (3 µM enzyme, 1 h, 37 °C); shown is the middle of each 90-letter strand. The score is log2 (uncut reads / reads without enzyme); the lower, the more was cut; hits are not called. Counts are relative to all reads; uncut strands gain when others are lost, and binding without cutting may add a little.

tested on: T1, Rep nickase domain of banana bunchy top virus; experiment: uncleaved DNA left, log2 of reads against the no-enzyme library (log2 ratio); higher = less cleavage (more negative = more Rep cleavage of the k-mer); sequences stand for … in CTCGTCCG…ACCGGAGA
T1 sequence (protein, residues 1-94, tag omitted): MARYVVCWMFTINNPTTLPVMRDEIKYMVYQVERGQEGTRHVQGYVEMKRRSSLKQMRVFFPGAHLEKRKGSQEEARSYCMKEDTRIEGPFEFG
Method: (§1)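 A pool of 90-nt single-stranded DNAs with seven random bases just before the constant AC of the nick site (name = the seven bases) was cut by 3 µM recombinant His6-SUMO-tagged Rep nickase domain (300 nM DNA, 50 mM HEPES pH 8.0, 50 mM NaCl, 1 mM MnCl2, 1 h, 37 °C, three replicates). Uncut DNA was amplified and sequenced.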

Sequence | uncleaved DNA left (log2)
CAGCAGG | 0.0356
GGCGATT | -0.102
TTGTAGG | 0.0181
ATCTCCT | -0.0261
AATTTCT | -3.57
TTAGCTA | -0.0529
CTTCTGT | -0.0689
GTAAGCA | 0.0579
GGATTTG | -0.072
ACACGCG | 0.103
TGTCCAC | 0.0198
CTATTGG | -0.106
CTTGAAA | -0.118
GAATCGG | 0.138
CTCAGCT | -0.115
ATCGTAG | 0.0608
AATGATA | -0.169
GGCAAGG | 0.134
AACCTGC | -0.00534
GTCAGCT | 0.0164

Sequence | uncleaved DNA left (log2)
TGGTCTC | 0.106
CCATGGG | -0.00163
AGGGATG | -0.0269
ATGAATA | -0.0192
TGTGTTC | 0.0224
CTGGTCG | -0.128
ATAGAAT | -0.0136
ATAAATA | 0.237
ATCTCGG | -0.101
GCATCAG | 0.0264
GAATCCT | -0.0723
GCATCCA | -0.00729
TGGAAAA | 0.164
GTGGCAG | 0.116
TAGCTGA | 0.078
CTAATTC | -0.113
TGAGTAT | 0.117
CGGCCCT | 0.00769
TTGGGCT | 0.0343
GCAGCGT | -0.0339

tested on: T2, Rep nickase domain of cabbage leaf curl virus; experiment: as above
T2 sequence (protein, residues 1-116, tag omitted): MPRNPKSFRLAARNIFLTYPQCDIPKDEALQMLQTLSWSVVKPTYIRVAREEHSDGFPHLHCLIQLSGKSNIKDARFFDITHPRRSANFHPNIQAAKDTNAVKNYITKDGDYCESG
Method: as §1

Sequence | uncleaved DNA left (log2)
CAGCAGG | -0.0746
GGCGATT | 0.202
TTGTAGG | 0.347
ATCTCCT | -0.294
AATTTCT | -1.15
TTAGCTA | 0.245
CTTCTGT | -0.111
GTAAGCA | 0.114
GGATTTG | 0.0383
ACACGCG | 0.389
TGTCCAC | 0.266
CTATTGG | -0.681
CTTGAAA | 0.0236
GAATCGG | 0.611
CTCAGCT | -0.295
ATCGTAG | -0.666
AATGATA | -0.166
GGCAAGG | 0.466
AACCTGC | -0.429
GTCAGCT | 0.315

Sequence | uncleaved DNA left (log2)
TGGTCTC | 0.41
CCATGGG | -0.72
AGGGATG | 0.0834
ATGAATA | -0.143
TGTGTTC | 0.372
CTGGTCG | -0.898
ATAGAAT | 0.379
ATAAATA | 0.0687
ATCTCGG | 0.453
GCATCAG | -0.67
GAATCCT | -2.84
GCATCCA | 0.0787
TGGAAAA | 0.583
GTGGCAG | 0.77
TAGCTGA | 0.367
CTAATTC | 0.32
TGAGTAT | 0.22
CGGCCCT | 0.0956
TTGGGCT | 0.252
GCAGCGT | -0.586

tested on: T3, Rep nickase domain of chickpea chlorotic dwarf virus; experiment: as above
T3 sequence (protein, residues 1-124, tag omitted): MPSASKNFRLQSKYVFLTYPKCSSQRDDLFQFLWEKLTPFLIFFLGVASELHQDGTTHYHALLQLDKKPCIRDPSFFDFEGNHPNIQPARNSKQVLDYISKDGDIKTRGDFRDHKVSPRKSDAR
Method: as §1

Sequence | uncleaved DNA left (log2)
CAGCAGG | 0.187
GGCGATT | 0.873
TTGTAGG | 1.04
ATCTCCT | -0.651
AATTTCT | -3.14
TTAGCTA | -0.415
CTTCTGT | -0.585
GTAAGCA | 0.0192
GGATTTG | 0.374
ACACGCG | 1.78
TGTCCAC | 0.728
CTATTGG | -0.563
CTTGAAA | -0.146
GAATCGG | 1.64
CTCAGCT | -1.14
ATCGTAG | -0.603
AATGATA | -0.921
GGCAAGG | 1.02
AACCTGC | -0.568
GTCAGCT | 1.12

Sequence | uncleaved DNA left (log2)
TGGTCTC | 0.696
CCATGGG | -0.501
AGGGATG | 0.671
ATGAATA | -1.45
TGTGTTC | 0.371
CTGGTCG | -0.359
ATAGAAT | 1.01
ATAAATA | -1.52
ATCTCGG | 1.45
GCATCAG | -0.334
GAATCCT | -2.45
GCATCCA | -0.194
TGGAAAA | 1.07
GTGGCAG | 1.75
TAGCTGA | 1.54
CTAATTC | -0.109
TGAGTAT | 0.653
CGGCCCT | -0.278
TTGGGCT | 0.18
GCAGCGT | -0.301

tested on: T4, Rep nickase domain of faba bean necrotic yellows virus; experiment: as above
T4 sequence (protein, residues 1-98, tag omitted): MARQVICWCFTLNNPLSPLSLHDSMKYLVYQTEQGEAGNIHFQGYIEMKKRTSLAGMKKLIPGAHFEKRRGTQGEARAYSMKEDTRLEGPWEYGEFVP
Method: as §1

Sequence | uncleaved DNA left (log2)
CAGCAGG | 0.132
GGCGATT | -0.0481
TTGTAGG | 0.0545
ATCTCCT | -0.164
AATTTCT | -0.177
TTAGCTA | -0.00162
CTTCTGT | -0.0918
GTAAGCA | -0.00386
GGATTTG | -0.03
ACACGCG | 0.14
TGTCCAC | -0.213
CTATTGG | 0.051
CTTGAAA | -0.142
GAATCGG | 0.0843
CTCAGCT | -0.0218
ATCGTAG | 0.0603
AATGATA | 0.0137
GGCAAGG | 0.0286
AACCTGC | 0.00428
GTCAGCT | 0.0178

Sequence | uncleaved DNA left (log2)
TGGTCTC | -0.1
CCATGGG | 0.0337
AGGGATG | 0.0467
ATGAATA | 0.0967
TGTGTTC | 0.0347
CTGGTCG | -0.082
ATAGAAT | 0.166
ATAAATA | 0.23
ATCTCGG | -0.00602
GCATCAG | -0.0605
GAATCCT | 0.000395
GCATCCA | -0.0151
TGGAAAA | 0.0416
GTGGCAG | -0.0131
TAGCTGA | 0.0245
CTAATTC | -0.0543
TGAGTAT | -0.0213
CGGCCCT | -0.074
TTGGGCT | -0.0151
GCAGCGT | 0.0401

tested on: T5, Rep nickase domain of maize striate mosaic virus; experiment: as above
T5 sequence (protein, residues 1-117, tag omitted): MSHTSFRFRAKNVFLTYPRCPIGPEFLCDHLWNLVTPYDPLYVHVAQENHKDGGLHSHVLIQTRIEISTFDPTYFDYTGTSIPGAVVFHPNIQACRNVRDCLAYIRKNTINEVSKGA
Method: as §1

Sequence | uncleaved DNA left (log2)
CAGCAGG | -0.56
GGCGATT | 1.7
TTGTAGG | 1.05
ATCTCCT | 0.946
AATTTCT | -1
TTAGCTA | 0.122
CTTCTGT | -0.682
GTAAGCA | 0.451
GGATTTG | 0.0384
ACACGCG | 1.89
TGTCCAC | 1.24
CTATTGG | -1.16
CTTGAAA | -0.695
GAATCGG | 2.11
CTCAGCT | -0.803
ATCGTAG | -1.28
AATGATA | 0.493
GGCAAGG | 1.56
AACCTGC | -0.944
GTCAGCT | 1.17

Sequence | uncleaved DNA left (log2)
TGGTCTC | 1.39
CCATGGG | -1.15
AGGGATG | 0.989
ATGAATA | -0.413
TGTGTTC | 1.19
CTGGTCG | -1.01
ATAGAAT | 1.2
ATAAATA | -0.521
ATCTCGG | 1.63
GCATCAG | -0.797
GAATCCT | -0.977
GCATCCA | 0.125
TGGAAAA | 0.964
GTGGCAG | 2.03
TAGCTGA | 1.66
CTAATTC | -0.935
TGAGTAT | 1.38
CGGCCCT | 0.354
TTGGGCT | 0.291
GCAGCGT | -0.678
